Common to all, as to format: in vivo
One test has as its system Alternaia brassicicola. The test can be described thus: Test Example C: Alternaria sooty spot on cabbage. Conditions: Table 7, Test C.
The test system of the next test is Plasmopara viticola. Put plainly: Test Example G: Downy mildew on vine. As to conditions: 250 ppm sprayed (2.5 ml/pot) before inoculation; assessed 7 to 10 days after inoculation.
A further test relates to Botrytis cinerea. Put plainly: Test Example B: Gray mold on tomato. As to conditions: Table 7, Test B.
A further test concerns Puccinia recondita. The test can be described thus: Test Example E: Brown rust on wheat. As to conditions: Table 7, Test E.
Test [1] has as its system Blumeria graminis f. sp. hordei. The test can be described thus: Test Example D: Powdery mildew on barley. As to conditions: Table 7, Test D.

Each structure is given as a SMILES string.

Turning to `Cc1cnn(-c2cc(Br)c(=O)n(CC(F)F)c2-c2ccccc2Cl)c1Cl` [Compound 230], the “control value, Test C (Alternaria sooty spot on cabbage)” value (shortened to “control value, Test C”) with Alternaia brassicicola is reported as “H (H shows the control value more than 50%)”. The “control value, Test G (downy mildew on vine)” value (“control value, Test G” for short) in the test on Plasmopara viticola was “H (H shows the control value more than 50%)”. In the test on Botrytis cinerea, the “control value, Test B (gray mold on tomato)” value (“control value, Test B” below) is reported as “H (H shows the control value more than 50%)”. For the same compound, the “control value, Test E (brown rust on wheat)” value (“control value, Test E” below) in the test with Puccinia recondita was “H (H shows the control value more than 50%)”. In addition, the “control value, Test D (powdery mildew on barley)” value (“control value, Test D” below) in test [1] is reported as “H (H shows the control value more than 50%)”.

Regarding `O=c1ccc(-n2cnc(Cl)c2Cl)c(-c2ccccc2Cl)n1CC(F)F` [Compound 231], the “control value, Test C” value in the test with Alternaia brassicicola was “H (H shows the control value more than 50%)”. Besides, the “control value, Test G” value in the test with Plasmopara viticola is given as “L (L shows the control value of 50% or less)”. In addition, the “control value, Test B” value in the test on Botrytis cinerea is on record as “H (H shows the control value more than 50%)”. Also, the “control value, Test E” value in the test with Puccinia recondita is recorded as “H (H shows the control value more than 50%)”. Besides, the “control value, Test D” value in test [1] is on record as “H (H shows the control value more than 50%)”.

For `O=c1c(Cl)cc(-n2cnc(Cl)c2Cl)c(-c2ccccc2Cl)n1CC(F)F` [Compound 232], in the test with Alternaia brassicicola, the “control value, Test C” value is listed as “H (H shows the control value more than 50%)”. In the test on Plasmopara viticola, the “control value, Test G” value is “L (L shows the control value of 50% or less)”. Besides, the “control value, Test B” value with Botrytis cinerea was “H (H shows the control value more than 50%)”. Further, the “control value, Test E” value in the test on Puccinia recondita is “H (H shows the control value more than 50%)”. In test [1], the “control value, Test D” value is on record as “H (H shows the control value more than 50%)”.

On to `O=c1ccc(-n2cc(Cl)cn2)c(-c2ccc(F)cc2Cl)n1CC(F)F` [Compound 233], for which the “control value, Test C” value with Alternaia brassicicola is on record as “H (H shows the control value more than 50%)”. Moreover, the “control value, Test G” value with Plasmopara viticola is “L (L shows the control value of 50% or less)”. Besides, the “control value, Test B” value in the test with Botrytis cinerea is “H (H shows the control value more than 50%)”. For the same compound, the “control value, Test E” value in the test with Puccinia recondita is given as “H (H shows the control value more than 50%)”. Besides, the “control value, Test D” value in test [1] is on record as “H (H shows the control value more than 50%)”.

Consider `O=c1c(Cl)cc(-n2cc(Cl)cn2)c(-c2ccc(F)cc2Cl)n1CC(F)F` [Compound 234], for which the “control value, Test C” value in the test on Alternaia brassicicola is given as “H (H shows the control value more than 50%)”. Further, the “control value, Test G” value in the test with Plasmopara viticola is listed as “L (L shows the control value of 50% or less)”. For the same compound, the “control value, Test B” value in the test on Botrytis cinerea is “H (H shows the control value more than 50%)”. In the test with Puccinia recondita, the “control value, Test E” value is “H (H shows the control value more than 50%)”. For the same compound, the “control value, Test D” value in test [1] was “H (H shows the control value more than 50%)”.

`O=c1c(Br)cc(-n2cnc(Cl)c2Cl)c(-c2ccccc2Cl)n1CC(F)F` [Compound 236]: the “control value, Test C” value in the test on Alternaia brassicicola was “H (H shows the control value more than 50%)”. Besides, the “control value, Test G” value in the test on Plasmopara viticola is recorded as “H (H shows the control value more than 50%)”. Also, the “control value, Test B” value in the test on Botrytis cinerea is on record as “H (H shows the control value more than 50%)”. Further, the “control value, Test E” value in the test with Puccinia recondita is recorded as “H (H shows the control value more than 50%)”. Moreover, in test [1], the “control value, Test D” value was “H (H shows the control value more than 50%)”.

In the case of `CCn1c(-c2ccccc2C)c(-n2cc(C)cn2)cc(Br)c1=O` [Compound 237], in the test on Alternaia brassicicola, the “control value, Test C” value is reported as “H (H shows the control value more than 50%)”. Also, the “control value, Test G” value in the test with Plasmopara viticola is “L (L shows the control value of 50% or less)”. For the same compound, in the test with Botrytis cinerea, the “control value, Test B” value is listed as “L (L shows the control value of 50% or less)”. The “control value, Test E” value with Puccinia recondita is on record as “L (L shows the control value of 50% or less)”. Further, in test [1], the “control value, Test D” value is “L (L shows the control value of 50% or less)”.

Consider `CCn1c(-c2c(F)cc(OC)cc2F)c(-n2cc(Cl)cn2)ccc1=O` [Compound 238], for which the “control value, Test C” value in the test with Alternaia brassicicola was “H (H shows the control value more than 50%)”. In the test on Plasmopara viticola, the “control value, Test G” value is on record as “L (L shows the control value of 50% or less)”. For the same compound, in the test with Botrytis cinerea, the “control value, Test B” value is on record as “H (H shows the control value more than 50%)”. Besides, the “control value, Test E” value with Puccinia recondita is “H (H shows the control value more than 50%)”. The “control value, Test D” value in test [1] is “H (H shows the control value more than 50%)”.

Turning to `COc1ccc(-c2c(-n3cc(Cl)cn3)cc(Cl)c(=O)n2CC(F)F)c(Cl)c1` [Compound 239], in the test with Alternaia brassicicola, the “control value, Test C” value is “H (H shows the control value more than 50%)”. Further, the “control value, Test G” value with Plasmopara viticola is “L (L shows the control value of 50% or less)”. Further, the “control value, Test B” value in the test on Botrytis cinerea is recorded as “H (H shows the control value more than 50%)”. The “control value, Test E” value with Puccinia recondita is listed as “H (H shows the control value more than 50%)”. The “control value, Test D” value in test [1] is recorded as “H (H shows the control value more than 50%)”.

For the compound `COc1ccc(-c2c(-n3cc(Cl)cn3)cc(Br)c(=O)n2CC(F)F)c(Cl)c1` [Compound 240], the “control value, Test C” value in the test with Alternaia brassicicola is on record as “H (H shows the control value more than 50%)”. For the same compound, the “control value, Test G” value with Plasmopara viticola is reported as “L (L shows the control value of 50% or less)”. Besides, in the test with Botrytis cinerea, the “control value, Test B” value is “H (H shows the control value more than 50%)”. Also, in the test with Puccinia recondita, the “control value, Test E” value is reported as “H (H shows the control value more than 50%)”. The “control value, Test D” value in test [1] is recorded as “H (H shows the control value more than 50%)”.

Regarding `CCn1c(-c2ccccc2OC)c(-n2cc(Cl)cn2)cc(Br)c1=O` [Compound 241], the “control value, Test C” value in the test with Alternaia brassicicola is “L (L shows the control value of 50% or less)”. Further, the “control value, Test G” value in the test on Plasmopara viticola is “L (L shows the control value of 50% or less)”. The “control value, Test B” value in the test on Botrytis cinerea was “H (H shows the control value more than 50%)”. For the same compound, the “control value, Test E” value with Puccinia recondita is given as “H (H shows the control value more than 50%)”. Also, the “control value, Test D” value in test [1] is recorded as “L (L shows the control value of 50% or less)”.

For `CCn1c(-c2ccccc2OC)c(-n2cc(Cl)cn2)ccc1=O` [Compound 242], the “control value, Test C” value in the test on Alternaia brassicicola is reported as “L (L shows the control value of 50% or less)”. Besides, the “control value, Test G” value in the test on Plasmopara viticola is “L (L shows the control value of 50% or less)”. Further, the “control value, Test B” value in the test on Botrytis cinerea is “H (H shows the control value more than 50%)”. In addition, the “control value, Test E” value with Puccinia recondita was “L (L shows the control value of 50% or less)”. For the same compound, in test [1], the “control value, Test D” value is reported as “L (L shows the control value of 50% or less)”.

For `CCn1c(-c2ccccc2OC)c(-n2cc(Cl)cn2)cc(Cl)c1=O` [Compound 243], in the test with Alternaia brassicicola, the “control value, Test C” value is recorded as “H (H shows the control value more than 50%)”. Besides, the “control value, Test G” value with Plasmopara viticola is “L (L shows the control value of 50% or less)”. For the same compound, the “control value, Test B” value in the test on Botrytis cinerea is recorded as “H (H shows the control value more than 50%)”. In the test with Puccinia recondita, the “control value, Test E” value is reported as “H (H shows the control value more than 50%)”. Besides, the “control value, Test D” value in test [1] is listed as “L (L shows the control value of 50% or less)”.

For `CCn1c(-c2ccccc2C)c(-n2ncc(C)c2Cl)cc(Cl)c1=O` [Compound 244], the “control value, Test C” value with Alternaia brassicicola is “H (H shows the control value more than 50%)”. Further, the “control value, Test G” value in the test with Plasmopara viticola is “L (L shows the control value of 50% or less)”. In the test with Botrytis cinerea, the “control value, Test B” value is listed as “H (H shows the control value more than 50%)”. The “control value, Test E” value in the test on Puccinia recondita is recorded as “H (H shows the control value more than 50%)”. Besides, the “control value, Test D” value in test [1] is “H (H shows the control value more than 50%)”.

Take `CCn1c(-c2ccccc2OC)c(-n2cc(C)cn2)cc(Br)c1=O` [Compound 247]: the “control value, Test C” value with Alternaia brassicicola is recorded as “L (L shows the control value of 50% or less)”. Moreover, in the test with Plasmopara viticola, the “control value, Test G” value is listed as “L (L shows the control value of 50% or less)”. The “control value, Test B” value with Botrytis cinerea is on record as “H (H shows the control value more than 50%)”. In the test with Puccinia recondita, the “control value, Test E” value is listed as “L (L shows the control value of 50% or less)”. The “control value, Test D” value in test [1] is “L (L shows the control value of 50% or less)”.

On to `CCn1c(-c2ccccc2OC)c(-n2ncc(C)c2Cl)cc(Br)c1=O` [Compound 249], for which the “control value, Test C” value in the test on Alternaia brassicicola is “H (H shows the control value more than 50%)”. For the same compound, in the test with Plasmopara viticola, the “control value, Test G” value was “L (L shows the control value of 50% or less)”. Further, the “control value, Test B” value in the test on Botrytis cinerea is on record as “H (H shows the control value more than 50%)”. Further, the “control value, Test E” value in the test on Puccinia recondita is recorded as “H (H shows the control value more than 50%)”. The “control value, Test D” value in test [1] is given as “H (H shows the control value more than 50%)”.

Regarding `CCn1c(-c2ccc(F)cc2F)c(-n2cc(F)cn2)ccc1=O` [Compound 250], in the test with Alternaia brassicicola, the “control value, Test C” value is on record as “H (H shows the control value more than 50%)”. Moreover, the “control value, Test G” value in the test on Plasmopara viticola was “L (L shows the control value of 50% or less)”. Also, the “control value, Test B” value with Botrytis cinerea is “H (H shows the control value more than 50%)”. In the test on Puccinia recondita, the “control value, Test E” value is on record as “H (H shows the control value more than 50%)”. For the same compound, the “control value, Test D” value in test [1] is recorded as “H (H shows the control value more than 50%)”.

Consider `CCn1c(-c2ccc(F)cc2F)c(-n2cc(F)cn2)cc(Cl)c1=O` [Compound 251], for which the “control value, Test C” value with Alternaia brassicicola is “H (H shows the control value more than 50%)”. In addition, the “control value, Test G” value with Plasmopara viticola is listed as “L (L shows the control value of 50% or less)”. Further, the “control value, Test B” value in the test with Botrytis cinerea was “H (H shows the control value more than 50%)”. Besides, in the test on Puccinia recondita, the “control value, Test E” value is reported as “H (H shows the control value more than 50%)”. Further, the “control value, Test D” value in test [1] is recorded as “H (H shows the control value more than 50%)”.
